Test results taken from the supplement of paper PMC4166925.
± gives the standard deviation of the averaged measurements. The full ranking holds about 33,000 sequences; the median of “E-score (dimensionless, -0.5 to 0.5)” is about -0.046, and the highest 2% start at about 0.36. Some of the results follow.

These sequences were tested on T1, SpTbr T-box DNA-binding domain (GST fusion) (assay: PBM E-score of 8-mer (E-score (dimensionless, -0.5 to 0.5)); Tbr is Tbrain of the sea star Patiria miniata (Pm) or the sea urchin Strongylocentrotus purpuratus (Sp); higher = stronger binding preference; most listed sequences are background and not binding sites). Conditions: the construct has about 5 more residues each side.
T1 sequence: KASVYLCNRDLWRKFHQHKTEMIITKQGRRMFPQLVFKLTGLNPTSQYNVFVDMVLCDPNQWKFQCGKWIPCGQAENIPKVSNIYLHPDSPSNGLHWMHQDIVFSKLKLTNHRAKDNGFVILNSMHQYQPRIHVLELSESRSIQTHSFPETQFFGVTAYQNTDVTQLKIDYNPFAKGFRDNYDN
Procedure, shortened: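 Expression of GST-fused Tbr T-box DNA-binding domains, each holding the full T-box plus roughly five flanking residues, was carried out in BL21 E. coli at 20 °C, with purification by glutathione affinity chromatography. Universal Agilent arrays made double-stranded by primer extension were incubated with the protein at 200 nM in PBS (pH 7.5), then scanned and quantified. All ungapped 8-mers were scored from probe intensities, and each received an enrichment E-score from the Universal PBM Analysis Suite, averaged over duplicate arrays.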

Sequence | PBM E-score of 8-mer
ACCCTTGC | 0.00159 ± 0.011
GTAATTAA | -0.0742 ± 0.051
GGTATCTA | -0.331 ± 0.011
CTAACGTA | -0.149 ± 0.076
AGAGTGAC | 0.145 ± 0.013
ACGCTCTC | 0.0889 ± 0.032
TCATATGA | -0.222 ± 0.034
AAGCAGCC | -0.1561 ± 0.0003
GGAAACGA | 0.136 ± 0.07
AACCGGTT | 0.097 ± 0.069
AATGCCAT | -0.0961 ± 0.0098
TCCGCCGA | -0.00696 ± 0.084
AGAATTAA | -0.0399 ± 0.14
CAGGTCAG | -0.101 ± 0.015
GCAGGTCA | 0.036 ± 0.077
AACCGGGT | -0.0581 ± 0.069
ACACAGAA | -0.134 ± 0.016
TATCCAGA | -0.377 ± 0.015
CCGGGCCG | -0.286 ± 0.037
AACAGAAC | -0.104 ± 0.0089
CACCTTAC | 0.413 ± 0.017
AGGCTCTG | -0.186 ± 0.052
TAGAAGGA | -0.284 ± 0.018
ACACATGA | 0.251 ± 0.012
ATAGCGTG | 0.11 ± 0.019

Sequence | PBM E-score of 8-mer
ATTGATTC | -0.0102 ± 0.024
AAATGGTG | 0.121 ± 0.0048
TCAACTGA | 0.103 ± 0.0029
AGGATAGC | -0.2131 ± 0.00059
ACCGTCTG | -0.035 ± 0.066
ATAGGTGC | 0.412 ± 0.012
TCGTAGAA | -0.27 ± 0.026
AGGCATAG | -0.272 ± 0.04
CATTACAG | -0.0811 ± 0.0099
CCCCGGCA | -0.143 ± 0.094
CGAGATAA | -0.0943 ± 0.053
CGCCATCA | 0.187 ± 0.006
GGGGTGTA | 0.167 ± 0.062
CGGGTTAA | -0.0722 ± 0.056
AGCACCTA | 0.409 ± 0.0069
CATGACGG | -0.0336 ± 0.039
ACTGTATC | -0.235 ± 0.079
AACGCACC | 0.1 ± 0.027
AAAAGGGG | -0.134 ± 0.14
GGAAATAA | 0.0299 ± 0.043
ATCTTCGC | 0.198 ± 0.0039
ATACAGTC | -0.183 ± 0.033
ATGGAATG | -0.205 ± 0.056
CAGGCTAA | -0.256 ± 0.0071
CGAAAACA | 0.148 ± 0.0075

Sequence | PBM E-score of 8-mer
GTTACCTA | 0.00777 ± 0.06
AGATCCGA | -0.238 ± 0.024
CGAGAGCA | 0.0598 ± 0.088
ATTTCCGC | -0.0491 ± 0.047
AATTTCCC | -0.0386 ± 0.024
AGACCGGA | -0.2436 ± 0.00056
ATCCCCTA | -0.2504 ± 0.00086
AACCGGTC | -0.162 ± 0.02
CTTGAAAA | -0.0358 ± 0.00039
ACGCTCAA | 0.0388 ± 0.056
CGCGCCCG | 0.248 ± 0.054
AGCACAAG | -0.114 ± 0.035
CGCAAATC | 0.151 ± 0.01
AAGCCTGT | -0.0871 ± 0.023
CGACTGTC | 0.0969 ± 0.0063
CGCCGCAC | 0.257 ± 0.0075
CTGCCACA | 0.268 ± 0.02
CTCTAAAC | -0.0505 ± 0.076
GCGAGCAA | 0.114 ± 0.026
GGATGATA | -0.0893 ± 0.062
AACTCTAA | -0.253 ± 0.003
CTGGCCAG | -0.194 ± 0.017
CGTTGAAA | -0.0127 ± 0.03
ACGAGATG | 0.0173 ± 0.074
ATGCGATG | -0.0228 ± 0.0097

Sequence | PBM E-score of 8-mer
GCGTAAAA | 0.0954 ± 0.1
GCTCTCTA | -0.071 ± 0.062
TCACCAAA | 0.181 ± 0.019
CTTTTAGC | 0.105 ± 0.06
CATTAGCC | -0.1746 ± 0.0017
AGCCGACC | -0.135 ± 0.14
CCACTGAA | -0.234 ± 0.086
AGAGGGAA | -0.179 ± 0.028
CCGCAACC | -0.0683 ± 0.12
AATCGTTG | -0.0248 ± 0.028
CGGCAGAG | -0.00848 ± 0.0038
AAGTCATG | 0.00265 ± 0.027
CACTGAGA | -0.123 ± 0.033
AAATGAGA | -0.237 ± 0.04
ACACATTC | 0.38 ± 0.022
AAATAGGT | 0.0743 ± 0.0022
GCGGACGA | 0.0697 ± 0.076
ACCTGAAG | -0.0399 ± 0.12
AGCGCGTA | 0.206 ± 0.027
AGTAAACT | -0.139 ± 0.028
ATCCCGAA | -0.0831 ± 0.035
TAAATTGA | -0.00251 ± 0.079
AATGTTCT | -0.298 ± 0.053
AGAGCATG | -0.1412 ± 0.0013
TGCATACA | -0.187 ± 0.0086

Sequence | PBM E-score of 8-mer
CGGTACTA | -0.195 ± 0.031
GTAGTCTA | -0.116 ± 0.06
CTACTAAG | -0.226 ± 0.012
GTCGATCA | 0.0683 ± 0.028
GCCCGGTA | -0.239 ± 0.12
GGTTTCAA | -0.0512 ± 0.061
ACTTTCTC | 0.0792 ± 0.07
CGTAAATA | -0.162 ± 0.0047
ATTTTCCG | -0.0713 ± 0.035
ATTCGTTA | 0.0736 ± 0.051
AATCTTGA | -0.148 ± 0.018
CGGACTGC | 0.0817 ± 0.0017
AATGCATG | -0.0811 ± 0.014
ATTGAGCG | 0.101 ± 0.024
GCTGCCCC | -0.16 ± 0.027
AGGCATGG | -0.326 ± 0.024
ACCCATAA | -0.00948 ± 0.027
CAGTTAAC | 0.0757 ± 0.03
GCCCCCTA | -0.206 ± 0.05
AGATCGAG | -0.104 ± 0.058
CGCCCGCA | 0.016 ± 0.092
CACGCTAA | 0.189 ± 0.0026
AGTGCCTG | -0.108 ± 0.096
AGCATGCC | -0.173 ± 0.059
GGAAGTCA | -0.175 ± 0.064

Sequence | PBM E-score of 8-mer
GGGGTCAA | -0.0735 ± 0.019
AAACGAGA | -0.256 ± 0.032
AATGCTTA | -0.107 ± 0.0042
GATCCCCA | 0.0786 ± 0.031
CGAATCTA | -0.0903 ± 0.013
TGGCAGAA | -0.18 ± 0.022
CCCTGTTC | -0.169 ± 0.0068
CAACTGGG | -0.029 ± 0.029
ATCTCGCG | 0.271 ± 0.01
GAGCACAC | 0.086 ± 0.016
CTTCCAAG | -0.213 ± 0.039
GTTGCATA | -0.117 ± 0.03
AGTCTCAG | -0.136 ± 0.059
ATCTACTA | -0.229 ± 0.003
AAGCCATG | -0.217 ± 0.025
ATGTTAAC | 0.182 ± 0.097
ACTGTTTA | -0.023 ± 0.049
AACATAAG | -0.0422 ± 0.07
CACTCAGG | -0.0871 ± 0.041
AACCCACC | -0.164 ± 0.0065
GACACCGA | 0.293 ± 0.0048
AGCAGCTA | 0.04 ± 0.044
CCAATCGA | -0.0623 ± 0.012
GATACTTA | -0.137 ± 0.011
TGAACTCA | -0.0862 ± 0.056

Sequence | PBM E-score of 8-mer
GCCCTGAA | -0.173 ± 0.069
AATCGCTA | 0.0759 ± 0.0071
CCTAAAGC | -0.194 ± 0.082
ACCCAACG | 0.0224 ± 0.064
ATCCATAC | -0.383 ± 0.0073
GGGAGTAC | -0.07519 ± 0.00044
GGGTAGAA | -0.074 ± 0.055
ATGAAATA | -0.0629 ± 0.043
CTTCAACC | -0.0664 ± 0.065
GCAGGCCC | -0.275 ± 0.011
ATATGGAC | -0.255 ± 0.035
CCCATTCC | -0.172 ± 0.028
AAACTCCC | -0.119 ± 0.057
AAGATTAG | -0.159 ± 0.043
GATGTCCC | -0.211 ± 0.064
ATTTTCGA | -0.223 ± 0.009
GCCTTAGC | 0.154 ± 0.043
GTGGTCTA | -0.228 ± 0.012
AACTAGAA | -0.0985 ± 0.021
GTCAGGAC | 0.064 ± 0.017
CCTAACCC | -0.131 ± 0.035
ACGATGCT | 0.00838 ± 0.043
